Measured values as given in PubChem BioAssay AID463173 (ICCB-Longwood Screening Facility, Harvard Medical School, 2010).
Among all 52,000 compounds or so, about 4,300 (8.3%) were called active. Rule as the data show it: active = survival mostly below about 52% (no sharp cut-off); inactive = mostly above about 56%. The list shows a part of the results.

The compounds below were run on DeltatarO mutant (assay: S. aureus survival, RN4220 and DeltatarO strains – OD600, teichoic acid synthesis inhibitors, primary screen (AID 463173)). Conditions: S. aureus RN4220 wild type/DeltatarO growth, OD600, 18 h, active compounds read low, screened at 18.75 µg/mL (by protocol).

SMILES | survival
CCC(=O)N1CCc2cc(S(=O)(=O)NC(C(=O)NCCc3ccc(C)cc3)C(C)C)ccc21 (stereo unspecified) | inactive: 86%
COCc1cc(C)n(CC(=O)Nc2cccc(C(C)=O)c2)c(=O)c1C#N | inactive: 69%
Cc1ccc(C)c(C(=O)CSc2nc3cc(C(=O)NC4CCCC4)ccc3c(=O)n2CC2CCCO2)c1 (stereo unspecified) | inactive: 89%
CCOc1ccccc1C(=O)N1CCCCC1CCN1CCOCC1 (stereo unspecified) | inactive: 87%
Cc1ccc(-c2nc3cc(NC(=O)c4cc(Br)ccc4Cl)ccc3o2)cc1 | inactive: 65%
Cc1ccc(-n2nc3c(N4CCC(C(=O)NCCC(C)C)CC4)nnc(C)c3c2C)cc1 | inactive: 98%
CC(C)c1ccc(S(=O)(=O)c2cnc(SCC(=O)Nc3ccc(F)cc3F)nc2N)cc1 | inactive: 94%
Cc1ccc2oc(=O)c3cc(C(=O)Nc4cccc(C#N)c4)sc3c2c1 | inactive: 67%
Cc1ccccc1-c1nnc(SCC(=O)N2CCCc3ccccc32)n1C | inactive: 100%
Cc1cc(C)cc(-n2ccnc2SCC(=O)Nc2ccc(C)c(Cl)c2)c1 | inactive: 55%
CCC(=O)N1c2ccccc2CC1C(=O)NCCc1ccc(Cl)cc1 (stereo unspecified) | inactive: 124%
COc1ccc(C2(NC(=O)c3ccc(Cn4cc(Cl)cn4)o3)CCCCC2)cc1 | inactive: 102%
O=C(Cn1nnnc1-c1ccccc1F)Nc1ccc(F)c(F)c1 | inactive: 77%
COc1ccc(NC(=O)c2[nH]nc3c2CSc2ccccc2-3)c(OC)c1 | inactive: 49%
CCOc1ccccc1NC(=O)c1nnn(CC(=O)Nc2ccccc2CC)c1N | inactive: 84%
O=C(Nc1cnn(C23CC4CC(CC(C4)C2)C3)c1)c1cc(-c2ccccc2)on1 | inactive: 101%
O=C(O)CCn1ccc2cc(S(=O)(=O)N3CCCCC3)ccc21 | inactive: 117%
COc1ccc(Cl)cc1NC(=O)CCCS(=O)(=O)c1nc(-c2ccc(OC)c(OC)c2)cc(C(F)(F)F)n1 | inactive: 62%
CCn1cc2nc(SCc3cccc(F)c3)n(CCc3ccccc3)c(=O)c2n1 | inactive: 71%
CCC(Cc1ccccc1)NC(=O)Cn1ncc2c3ccccc3n(Cc3ccc(F)cc3)c2c1=O (stereo unspecified) | inactive: 107%
O=C(NCc1ccccc1Cl)C1CCN(c2ncnc3c2nc2n3CCCCC2)CC1 | inactive: 71%
Cc1nnc(NC(=O)CSCc2cc(=O)c3ccc(C)c(C)c3[nH]2)s1 | inactive: 73%
Cc1cc(C)n2c(Nc3cccc(C(F)(F)F)c3)c(-c3ccsc3)nc2n1 | inactive: 78%

SMILES | survival
COc1ccc(OC)c2sc(N(CCCN(C)C)C(=O)c3ccco3)nc12 | inactive: 126%
COc1ccc(C2CC(=O)Oc3c2c(=O)n(C)c2ccccc32)c(OC)c1OC (stereo unspecified) | inactive: 56%
O=C(COc1ccccc1)Nc1ccc2nc(SCC(=O)N3CCCC3)sc2c1 | inactive: 68%
CC(=O)Nc1sc2c(c1C(N)=O)CCCC2 | inactive: 80%
Fc1ccc(N2CCN(c3ncnc4c3nc3n4CCCC3)CC2)cc1 | inactive: 141%
CCOc1ccc(NC(=O)CS(=O)(=O)Cc2nc(-c3ccc(C)cc3)oc2C)cc1 | inactive: 84%
O=c1nc(N(c2ccccc2)c2ccccc2)[nH]c(=O)[nH]1 | inactive: 113%
CCSc1nnc(CNc2ccc(F)cc2)n1CC1CCCO1 (stereo unspecified) | inactive: 91%
CCOC(=O)c1ccc(NC(=O)c2ccc(-c3cccc(Cl)c3C)o2)cc1 | active: 37%
CCOc1ccc(CCNC(=O)c2cc3c(-c4ccccc4F)nn(C)c3s2)cc1OCC | inactive: 67%
COc1ccc(C2c3c(-c4ccc(F)cc4)n[nH]c3C(=O)N2c2ccccc2)cc1OC (stereo unspecified) | inactive: 124%
Cc1ccccc1CNC(=O)CCSCc1cnn(-c2ccccc2)c1-n1cccc1 | inactive: 64%
O=c1c2oc3ccccc3c2ncn1Cc1ccc(Br)cc1 | inactive: 107%
COc1ccc(C2c3c(oc4ccccc4c3=O)C(=O)N2c2nc(C)c(C)s2)cc1 (stereo unspecified) | inactive: 58%
CCC(=O)N1c2ccc(S(=O)(=O)N3CCCCCC3)cc2CC1C (stereo unspecified) | inactive: 69%
CCC(Sc1nc2cc3c(cc2c(=O)n1CCCC(=O)NCc1ccc2c(c1)OCO2)OCO3)C(=O)NCCCOC (stereo unspecified) | inactive: 76%
Cc1ccc(NC(=O)COc2ccc(-c3nn(C)c(=O)c4ccccc34)cc2)c(C)c1 | inactive: 73%
Nc1c(-c2nc(-c3ccccc3Cl)no2)nnn1-c1ccccc1F | inactive: 79%
COC(=O)c1cc2oc3ccccc3c2n1CC(=O)Nc1ccc(N(C)C)cc1 | inactive: 76%
Cc1ccc(S(=O)(=O)N(CC(=O)Nc2c(C)cccc2C)c2cccc(Cl)c2)cc1 | active: 46%
Cc1nc2nc(C)c(CCC(=O)NCCc3ccccc3)c(C)n2n1 | inactive: 81%
O=C(Cn1cc(S(=O)(=O)Cc2ccccc2Cl)c2ccccc21)Nc1cccc(C(F)(F)F)c1 | inactive: 75%
CCOc1ccc(C(NC(=O)c2cc(OC)c(OC)c(OC)c2)c2cc(Cl)c3cccnc3c2O)cc1 (stereo unspecified) | inactive: 120%

SMILES | survival
Cc1ccc2nc(CN3CCN(S(=O)(=O)c4ccccc4)CC3)oc2c1 | inactive: 77%
CCc1ccc(NC(=O)CSc2nc3ccccc3c(=O)n2CCC(=O)NC2CCCCC2)cc1 | inactive: 67%
COC(=O)c1cc(C)nc2c1c(=O)nc(SCc1c(C)cc(C)cc1C)n2C1CC1 | inactive: 79%
CCS(=O)(=O)N1CC(=O)N(c2ccc(C)c(C)c2)C(C)(C(=O)NC2CCCCCC2)C1 (stereo unspecified) | inactive: 80%
Cc1cc(C)c2[nH]c(=O)c(CN(CCN3CCOCC3)C(=S)NCC3CCCO3)cc2c1 (stereo unspecified) | inactive: 95%
CCCN(C(=O)c1cn(CC(C)C)c(=O)c2cc(OC)c(OC)cc12)c1cccc(C)c1 | inactive: 152%
COc1ccc(-c2cn3c(n2)sc2cc(C(=O)N4CCCCC4)ccc23)cc1 | inactive: 51%
Cc1cc(S(=O)(=O)Nc2ccc3[nH]c(=O)sc3c2)ccc1F | inactive: 73%
Cn1cc(S(=O)(=O)N2CCCCC2)cc1C(=O)NCc1ccc(Cl)cc1 | inactive: 74%
CCC(=O)Nc1nnc(S(=O)(=O)N2CCCCCC2)s1 | inactive: 89%
COc1ccc(NC(=O)C(NS(=O)(=O)c2cccc3nsnc23)c2ccccc2)cc1 (stereo unspecified) | inactive: 90%
CCOc1cc(-c2nnc(SCC(=O)NCCCOC)nc2-c2ccc(OC)c(OCC)c2)ccc1OC | inactive: 73%
CCC(CC)c1nn2cc(-c3ccccc3)nc2s1 | inactive: 112%
CCCCSc1nnc2c(n1)OC(c1ccc(C)s1)Nc1ccccc1-2 (stereo unspecified) | active: 41%
CN=C1SC(C(=O)Nc2ccccc2)CC(=O)N1C (stereo unspecified) | inactive: 98%
CCCCNC(=O)CN1CCN(c2ncc(NC(=O)c3ccc(Cl)cc3)cc2C(=O)O)CC1 | inactive: 94%
CCCOc1cccc(C2c3c(oc4ccc(F)cc4c3=O)C(=O)N2c2nc(C)c(C(C)=O)s2)c1 (stereo unspecified) | inactive: 65%
Cc1cc(C)c(NC(=O)CSc2nc3c([nH]c4ccccc43)c(=O)n2C)c(C)c1 | inactive: 78%
COc1ccc(CCNC(=O)c2ccc(Cn3c(=O)[nH]c4cc(OC)c(OC)cc4c3=O)cc2)cc1OC | inactive: 81%
O=c1[nH]c2nonc2nc1/C=C(\O)c1ccccc1 | active: 15%
COc1ccccc1-c1nc(SCC(=O)c2ccc(Cl)cc2)n[nH]1 | inactive: 175%
CCC(=O)Nc1sc2c(c1C(=O)Nc1ccc(Br)cc1)CCCCC2 | inactive: 135%
CCN(C(=O)Cn1ncc2c(=O)oc3ccccc3c21)c1ccccc1F | inactive: 118%

SMILES | survival
O=c1c2ccccc2n(Cc2cccc(Cl)c2)c(=O)n1Cc1ccccc1 | inactive: 124%
CN1CCN(C(CNC(=O)c2c(F)cccc2F)c2ccc3c(c2)OCO3)CC1 (stereo unspecified) | inactive: 67%
CC(=O)N1N=C(c2ccccc2)CC1c1ccccc1 (stereo unspecified) | inactive: 94%
Cc1cccc(N2CCN(C(=O)c3cc4ccc5cccnc5c4[nH]3)CC2C)c1 (stereo unspecified) | inactive: 92%
N#CC(C(=O)c1ccc(F)cc1)c1nc2ccccc2[nH]1 (stereo unspecified) | inactive: 86%
CCC(C)NC(=O)c1sc2nc3n(c(=O)c2c1C)CCC3 (stereo unspecified) | inactive: 93%
COCCc1nn2c(=O)cc(COC(=O)c3ccc(Br)cc3)nc2s1 | inactive: 126%
COc1cccc2c1cc1c(=O)n(CC(=O)N3CCC(C)CC3)nc(C)n12 | inactive: 84%
O=C1NC(=O)C(Nc2cccc3ccccc23)S1 (stereo unspecified) | inactive: 82%
COCCCNc1nc(NCc2ccc(C)cc2)c2cnn(C)c2n1 | inactive: 68%
CCCCc1nn2c(=O)cc(COC(=O)c3ccccc3C)nc2s1 | inactive: 83%
Cc1ccc(-n2nc3c(=O)n(C(C)C(=O)NCc4ccccc4C)nc(C)c3c2C)cc1 (stereo unspecified) | inactive: 94%
CCOc1ccccc1NS(=O)(=O)c1cc(-c2cnc(C3CC3)o2)ccc1C | inactive: 116%
CN(Cc1ccccc1)S(=O)(=O)c1ccc2c3c(cccc13)C(=O)N2 | inactive: 82%
CC1=CC(C)(C)N(C(=O)CNC2CCCCC2)c2cc(C)ccc21 | inactive: 107%
Cc1ccc(NC(=O)CCN2C(=O)c3ccccc3Sc3ncccc32)c(Cl)c1 | inactive: 74%
COc1ccccc1NC(=O)c1sc2nc(C)c(C(=O)Nc3ccc(C)cc3C)c(-c3ccccc3Cl)c2c1N | inactive: 135%
COc1cc(OC)cc(C(=O)NCCc2csc(-c3ccc(C(F)(F)F)cc3)n2)c1 | inactive: 81%
Cc1ccc2oc(=O)c3cc(C(=O)NCCc4ccc(Cl)cc4)sc3c2c1 | inactive: 93%
Cc1cc(C)c(O)c(N)c1 | active: 39%
CCc1cccc(C)c1NC(=O)CCS(=O)(=O)c1ccc2c(c1)oc(=O)n2C | inactive: 84%
COc1cccc(CN(C(=O)c2oc3ccccc3c2C)C2CCS(=O)(=O)C2)c1 (stereo unspecified) | inactive: 69%
